# According to PubChem BioAssay (Tox21):
# Several values for one entry are separate records, joined by “and”; a condition that tells them apart may be missing. Equal values may be shown once. The inconclusive results got no clear call from the source; some entries with a clear call stand among them for comparison. For part of these data: Where the call is inconclusive, the potency comes from a doubtful curve fit. Some compounds were tested as several samples or in several runs, with calls that do not always agree. Activity calls are given as the source filed them. Calls come from the whole dose curve; as a rule, active = well fitted curve in the direction sought with a large enough effect in the repeat runs; inconclusive = weak or mixed curves; inactive = no such curve, though single readings can be large; an effect the other way counts as inactive or inconclusive.
# How the values were obtained:
# [1] = qHTS RealTime-Glo MT Cell Viability Assay in HEK293 cells - 32 hour (AID 1224868); note: nearly all actives have a fitted effect of over 50% in size
# Procedure, shortened: (§1)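 Nonlytic real-time viability readout: viable cells convert prosubstrate to NanoLuc substrate, giving luminescence proportional to live cell number. HEK293, 600 cells/well, compound added after 5 h, continuous culture at 37 C.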
# [2] = A CellTox Green Cytotoxicity Assay to monitor cytotoxicity in HEK293 cells - 40 hour (AID 1224871); note: nearly all actives have a fitted effect of over 45% in size
# Procedure, shortened: (§2)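 Real-time, in one plate: 600 HEK293 cells/well with dead-cell DNA dye, pinned compound after 5 h, 37 C incubation over 40 h; viable cells give no appreciable fluorescence.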
# [3] = qHTS RealTime-Glo MT Cell Viability Assay in HepG2 cells - 8 hour (AID 1224873); note: nearly all actives have a fitted effect of over 55% in size
# Procedure, shortened: (§3)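 HepG2 cells (600/well) mixed with RealTime-Glo MT reagent, settled 5 h at 37 C/5% CO2 before compound addition. Nonlytic NanoLuc luminescence from viable-cell prosubstrate reduction read repeatedly during 40 h treatment at 37 C.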
# [4] = A CellTox Green Cytotoxicity Assay to monitor cytotoxicity in HEK293 cells - 24 hour (AID 1224875); note: nearly all actives have a fitted effect of over 45% in size
# Procedure, shortened: as §2
# [5] = qHTS RealTime-Glo MT Cell Viability Assay in HepG2 cells - 40 hour (AID 1224870); note: nearly all actives have a fitted effect of over 50% in size
# Procedure, shortened: as §3
# [6] = qHTS RealTime-Glo MT Cell Viability Assay in HEK293 cells - 16 hour (AID 1224872); note: nearly all actives have a fitted effect of over 50% in size
# Procedure, shortened: as §1
# [7] = qHTS RealTime-Glo MT Cell Viability Assay in HEK293 cells - 40 hour (AID 1224874); settings: RealTime-Glo luminescence; max response: stronger effect = lower value; note: nearly all actives have a fitted effect of over 50% in size
# Procedure, shortened: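 Kinetic, non-lysing viability readout. Seed HEK293 (600/well) with reagent, incubate 5 h at 37 C/5% CO2, pin 23 nL compound in DMSO, incubate at 37 C, read luminescence at 0, 8, 16, 24, 32, 40 h.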
# Potency is the fitted concentration of half-maximal effect; tags give direction and shape of the fitted curve.
Compound,Potency [1],Potency [2],Potency [3],Potency [4],Potency [5],Potency [6],Potency [7]
N#CC(CCc1ccc(Cl)cc1)(Cn1cncn1)c1ccccc1 (stereo not drawn),active: 17.4 µM,active: 49 µM,active: 38.9 µM,"inconclusive: 54.9 µM [activator, single point]",,,
Nc1ccc(-c2ccc(N)c(Cl)c2)cc1Cl,active: 12.4 µM and active: 18.2 µM and active: 21.9 µM,,active: 43.6 µM,,active: 54.9 µM,"inconclusive: 15.6 µM [cytotoxic, full curve] and inconclusive: 22.9 µM [cytotoxic, partial curve] and active: 24.5 µM",
[Cl][Sb]([Cl])[Cl],"inconclusive: 19.5 µM [rising, partial curve]",active: 24.5 µM,,,,,"inconclusive: 24.5 µM [rising, partial curve]"
CCCCCc1cc(O)cc(O)c1,"inconclusive: 43.8 µM [cytotoxic, partial curve]","inconclusive: 61.9 µM [activator, single point] and inconclusive: 54.9 µM [activator, single point]",,,,"inconclusive: 39.1 µM [cytotoxic, partial curve] and active: 24.5 µM","inconclusive: 43.8 µM [cytotoxic, partial curve]"
OC(c1ccc(F)cc1)(c1cncnc1)c1ccccc1Cl (stereo not drawn),inactive,"inconclusive: 0.49 µM [activator, single point]",inactive,,,,
